Test results published in the supplement of paper PMC8728848.
Some of the results follow.

Experiments:
Assay in all cases: glycan array binding signal (z-score within array); higher = stronger binding
Settings in all cases: glycan notation: IUPAC condensed, linker removed
[1] = target: Neu5Ac(a2-3)[GalNAc(b1-4)]Gal(b1-4)GlcNAc(b1-3)GalNAc
How it was run: (§1)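 From the Consortium for Functional Glycomics database, 3228 arrays were curated, keeping only those whose protein sequence was available. Binding is given as a within-array Z-score averaged across arrays sharing a protein sequence and across linkers. Negative Z-scores can be read as non-binding.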

[2] = target: Neu5Ac(a2-3)[Neu5Ac(a2-6)]GalNAc
How it was run: as §1

Neu5Ac(a2-6)Gal = target: Neu5Ac(a2-6)Gal
How it was run: as §1

[3] = target: Neu5Ac(a2-6)Gal(b1-3)GlcNAc(b1-3)[Gal(b1-4)GlcNAc(b1-6)]Gal(b1-4)Glc
How it was run: as §1

Neu5Ac(a2-6)Gal(b1-4)Glc = target: Neu5Ac(a2-6)Gal(b1-4)Glc
How it was run: as §1

[4] = target: Neu5Ac(a2-6)Gal(b1-4)GlcNAc
How it was run: as §1

[5] = target: Neu5Ac(a2-6)Gal(b1-4)GlcNAc(b1-2)Man
How it was run: as §1

[6] = target: Neu5Ac(a2-6)Gal(b1-4)GlcNAc(b1-2)Man(a1-3)Man(b1-4)GlcNAc(b1-4)GlcNAc
How it was run: as §1

[7] = target: Neu5Ac(a2-6)Gal(b1-4)GlcNAc(b1-2)Man(a1-3)[Gal(b1-4)GlcNAc(b1-2)Man(a1-6)]Man(b1-4)GlcNAc(b1-4)GlcNAc
How it was run: as §1

[8] = target: Neu5Ac(a2-6)Gal(b1-4)GlcNAc(b1-2)Man(a1-3)[GlcNAc(b1-2)Man(a1-6)]Man(b1-4)GlcNAc(b1-4)GlcNAc
How it was run: as §1

[9] = target: Neu5Ac(a2-6)Gal(b1-4)GlcNAc(b1-2)Man(a1-3)[GlcNAc(b1-2)Man(b1-4)GlcNAc(b1-2)Man(a1-6)]Man(b1-4)GlcNAc(b1-4)GlcNAc
How it was run: as §1

[10] = target: Neu5Ac(a2-6)Gal(b1-4)GlcNAc(b1-2)Man(a1-3)[GlcNAc(b1-4)][Neu5Ac(a2-6)Gal(b1-4)GlcNAc(b1-2)Man(a1-6)]Man(b1-4)GlcNAc(b1-4)GlcNAc
How it was run: as §1

[11] = target: Neu5Ac(a2-6)Gal(b1-4)GlcNAc(b1-2)Man(a1-3)[Man(a1-6)]Man(b1-4)GlcNAc(b1-4)GlcNAc
How it was run: as §1

[12] = target: Neu5Ac(a2-6)Gal(b1-4)GlcNAc(b1-2)Man(a1-3)[Neu5Ac(a2-3)Gal(b1-4)GlcNAc(b1-2)Man(a1-6)]Man(b1-4)GlcNAc(b1-4)GlcNAc
How it was run: as §1

[13] = target: Neu5Ac(a2-6)Gal(b1-4)GlcNAc(b1-2)Man(a1-3)[Neu5Ac(a2-6)Gal(b1-4)GlcNAc(b1-2)Man(a1-6)]Man(b1-4)GlcNAc(b1-4)GlcNAc
How it was run: as §1

[14] = target: Neu5Ac(a2-6)Gal(b1-4)GlcNAc(b1-2)Man(a1-3)[Neu5Ac(a2-6)Gal(b1-4)GlcNAc(b1-2)Man(a1-6)]Man(b1-4)GlcNAc(b1-4)[Fuc(a1-6)]GlcNAc
How it was run: as §1

[15] = target: Neu5Ac(a2-6)Gal(b1-4)GlcNAc(b1-2)Man(a1-6)Man(b1-4)GlcNAc(b1-4)GlcNAc
How it was run: as §1

[16] = target: Neu5Ac(a2-6)Gal(b1-4)GlcNAc(b1-2)Man(a1-6)[Gal(b1-4)GlcNAc(b1-2)Man(a1-3)]Man(b1-4)GlcNAc(b1-4)GlcNAc
How it was run: as §1

[17] = target: Neu5Ac(a2-6)Gal(b1-4)GlcNAc(b1-2)Man(a1-6)[GlcNAc(b1-2)Man(a1-3)]Man(b1-4)GlcNAc(b1-4)GlcNAc
How it was run: as §1

[18] = target: Neu5Ac(a2-6)Gal(b1-4)GlcNAc(b1-2)Man(a1-6)[Man(a1-3)]Man(b1-4)GlcNAc(b1-4)GlcNAc
How it was run: as §1

[19] = target: Neu5Ac(a2-6)Gal(b1-4)GlcNAc(b1-2)[Neu5Ac(a2-6)Gal(b1-4)GlcNAc(b1-4)]Man(a1-3)[GlcNAc(b1-4)][Neu5Ac(a2-6)Gal(b1-4)GlcNAc(b1-2)[Neu5Ac(a2-6)Gal(b1-4)GlcNAc(b1-6)]Man(a1-6)]Man(b1-4)GlcNAc(b1-4)GlcNAc
How it was run: as §1

[20] = target: Neu5Ac(a2-6)Gal(b1-4)GlcNAc(b1-2)[Neu5Ac(a2-6)Gal(b1-4)GlcNAc(b1-4)]Man(a1-3)[GlcNAc(b1-4)][Neu5Ac(a2-6)Gal(b1-4)GlcNAc(b1-4)Man(a1-6)]Man(b1-4)GlcNAc(b1-4)GlcNAc
How it was run: as §1

[21] = target: Neu5Ac(a2-6)Gal(b1-4)GlcNAc(b1-2)[Neu5Ac(a2-6)Gal(b1-4)GlcNAc(b1-6)]Man(a1-6)[Neu5Ac(a2-6)Gal(b1-4)GlcNAc(b1-2)Man(a1-3)][GlcNAc(b1-4)]Man(b1-4)GlcNAc(b1-4)GlcNAc
How it was run: as §1

[22] = target: Neu5Ac(a2-6)Gal(b1-4)GlcNAc(b1-3)Gal(b1-3)GlcNAc
How it was run: as §1

[23] = target: Neu5Ac(a2-6)Gal(b1-4)GlcNAc(b1-3)Gal(b1-4)GlcNAc
How it was run: as §1

[24] = target: Neu5Ac(a2-6)Gal(b1-4)GlcNAc(b1-3)Gal(b1-4)GlcNAc(b1-2)Man(a1-3)[Neu5Ac(a2-6)Gal(b1-4)GlcNAc(b1-3)Gal(b1-4)GlcNAc(b1-2)Man(a1-6)]GalNAc
How it was run: as §1

[25] = target: Neu5Ac(a2-6)Gal(b1-4)GlcNAc(b1-3)Gal(b1-4)GlcNAc(b1-3)Gal(b1-4)GlcNAc
How it was run: as §1

[26] = target: Neu5Ac(a2-6)Gal(b1-4)GlcNAc(b1-3)Gal(b1-4)GlcNAc(b1-3)Gal(b1-4)GlcNAc(b1-2)Man(a1-3)[Neu5Ac(a2-6)Gal(b1-4)GlcNAc(b1-3)Gal(b1-4)GlcNAc(b1-3)Gal(b1-4)GlcNAc(b1-2)Man(a1-6)]GalNAc
How it was run: as §1

[27] = target: Neu5Ac(a2-6)Gal(b1-4)GlcNAc(b1-3)Gal(b1-4)GlcNAc(b1-3)GalNAc
How it was run: as §1

[28] = target: Neu5Ac(a2-6)Gal(b1-4)GlcNAc(b1-3)Gal(b1-4)GlcNAc(b1-3)[Neu5Ac(a2-6)Gal(b1-4)GlcNAc(b1-3)Gal(b1-4)GlcNAc(b1-6)]GalNAc
How it was run: as §1

[29] = target: Neu5Ac(a2-6)Gal(b1-4)GlcNAc(b1-3)Gal(b1-4)GlcNAc(b1-6)[Gal(b1-3)]GalNAc
How it was run: as §1

[30] = target: Neu5Ac(a2-6)Gal(b1-4)GlcNAc(b1-3)Gal(b1-4)[Fuc(a1-3)]GlcNAc(b1-3)Gal(b1-4)[Fuc(a1-3)]GlcNAc
How it was run: as §1

[31] = target: Neu5Ac(a2-6)Gal(b1-4)GlcNAc(b1-3)GalNAc
How it was run: as §1

[32] = target: Neu5Ac(a2-6)Gal(b1-4)GlcNAc(b1-3)[Neu5Ac(a2-6)Gal(b1-4)GlcNAc(b1-6)]GalNAc
How it was run: as §1

[33] = target: Neu5Ac(a2-6)Gal(b1-4)GlcNAc(b1-6)GalNAc
How it was run: as §1

[34] = target: Neu5Ac(a2-6)Gal(b1-4)GlcNAc(b1-6)[Gal(b1-3)GlcNAc(b1-3)]Gal(b1-4)Glc
How it was run: as §1

[35] = target: Neu5Ac(a2-6)Gal(b1-4)GlcNAc(b1-6)[Gal(b1-3)]GalNAc
How it was run: as §1

B1: Siglec-7-SA-PE-180 (Homo sapiens), Q9Y286 (protein)
chain: MLLLLLLPLLWGRERVEGQKSNRKDYSLTMQSSVTVQEGMCVHVRCSFSYPVDSQTDSDPVHGYWFRAGNDISWKAPVATNNPAWAVQEETRDRFHLLGDPQTKNCTLSIRDARMSDAGRYFFRMEKGNIKWNYKYDQLSVNVTALTHRPNILIPGTLESGCFQNLTCSVPWACEQGTPPMISWMGTSVSPLHPSTTRSSVLTLIPQPQHHGTSLTCQVTLPGAGVTTNRTIQLNVSYPPQNLTVTVFQGEGTASTALGNSSSLSVLEGQSLRLVCAVDSNPPARLSWTWRSLTLYPSQPSNPLVLELQVHLGDEGEFTCRAQNSLGSQHVSLNLSLQQEYTGKMRPVSGVLLGAVGGAGATALVFLSFCVIFIVVRSCRKKSARPAADVGDIGMKDANTIRGSASQGNLTESWADDNPRHHGLAAHSSGEEREIQYAPLSFHKGEPQDLSGQEATNNEYSEIKIPK
What does the source list for B1?
glycan array binding signal (z-score) [1]: 0.025; glycan array binding signal (z-score) [2]: 3.03; glycan array binding signal (z-score) (Neu5Ac(a2-6)Gal): 0.788; glycan array binding signal (z-score) [3]: -0.362; glycan array binding signal (z-score) (Neu5Ac(a2-6)Gal(b1-4)Glc): 0.151; glycan array binding signal (z-score) [4]: 0.3; glycan array binding signal (z-score) [5]: -0.372; glycan array binding signal (z-score) [6]: -0.047; glycan array binding signal (z-score) [7]: -0.303; glycan array binding signal (z-score) [8]: -0.249; glycan array binding signal (z-score) [9]: -0.402; glycan array binding signal (z-score) [10]: -0.177; glycan array binding signal (z-score) [11]: -0.028; glycan array binding signal (z-score) [12]: 0.991; glycan array binding signal (z-score) [13]: -0.088; glycan array binding signal (z-score) [14]: -0.154; glycan array binding signal (z-score) [15]: -0.076; glycan array binding signal (z-score) [16]: -0.12; glycan array binding signal (z-score) [17]: -0.334; glycan array binding signal (z-score) [18]: -0.135; glycan array binding signal (z-score) [19]: -0.159; glycan array binding signal (z-score) [20]: 0.514; glycan array binding signal (z-score) [21]: -0.04; glycan array binding signal (z-score) [22]: -0.219; glycan array binding signal (z-score) [23]: 0.369; glycan array binding signal (z-score) [24]: 0.25; glycan array binding signal (z-score) [25]: -0.078; glycan array binding signal (z-score) [26]: 0.262; glycan array binding signal (z-score) [27]: -0.587; glycan array binding signal (z-score) [28]: 0.185; glycan array binding signal (z-score) [29]: 0.148; glycan array binding signal (z-score) [30]: -0.037; glycan array binding signal (z-score) [31]: -0.252; glycan array binding signal (z-score) [32]: -0.278; glycan array binding signal (z-score) [33]: -0.258; glycan array binding signal (z-score) [34]: -0.273; glycan array binding signal (z-score) [35]: 0.216
